Laboratory results published in patent publication US12599649B2, “Bioactive polypeptides for improvements in plant protection, growth and productivity” (priority 2017, dated 2026).

What was measured:
Assay type in all cases: in vivo
[1] = tested on: soybean; assay: Phytotoxicity and defoliation of soybean, Paraguay field trials (Example 53); conditions: Yatytay site
[2] = tested on: jalapeno peppers (Capsicum); assay: Foliar Bt.4Q7Flg22 and Gm.RHPP on jalapeno pepper (Example 41)
Experimental: Small-scale plots were designed to simulate commercial growing conditions for jalapeno peppers. Peppers were grown for 12-weeks in a controlled growth room and then transplanted outside in 2 raised beds covered with black plastic mulch that had good water-holding characteristics and in soil having a pH of 5.8-6.6. Jalapeno pepper plants were spaced 14-16 inches (38 cm) apart with 16-24 inches (50 cm) between plants containing approximately 25 plants per row bed. Plants were grown using drip irrigation and fertilizer applied following grower guidelines throughout the growing season to provide optimum conditions for plant growth. The raised bed plots were designed to simulate the planting densities used by commercial growers that generally plant approximately plants per acre (5,000-6,500 plants per acre or 12,355-16,062 plants per hectare) in double rows 35.6-45.7 cm apart with the beds spaced 5.0-6.5 feet (1.52-1.98 meters) apart from their centers (Orzolek et al., “Agricultural Alternatives: Pepper Production.” University Park: Penn State Extension, 2010).
Plants were treated in replicates of 6 plants, with three replicates per treatment. Replicates with average yield per plant 50% above or 50% below the median yield for the trial were excluded as outliers.
The number of peppers and the above ground biomass per plant were normalized to the yield and to the biomass of the pepper control plants that were treated with surfactant alone (Table 62).

[3] = tested on: squash; assay: Foliar Bt.4Q7Flg22 or Gm.RHPP on Crookneck squash, yield (Example 42)
Source text: Yield comparisons were made between the plants treated with the polypeptides compared to surfactant only control plants, with three replicates per treatment. […] Replicates with average yield per plant 50% above or 50% below the median yield for the trial were excluded as outliers.
Squash plants were cultivated in sandy loam soil as follows. 2.5 cm holes were cut in 0.76 meters wide plastic covered mounds, two rows per mound, holes spaced 0.46 meters apart within each row. Rows were staggered within the mound. Mounds were spaced 1.2 meters apart. Three squash seeds were planted per hole and thinned to a single plant per hole 14 days after planting. Drip irrigation tubing was laid in the center of each mound, and plants were watered as necessary.

[4] = tested on: soybean; assay: Foliar RHPP on R1 soybean, plant height (Example 23); conditions: 300 nM + 0.1% ALLIGARE SURFACE
Experimental: RHPP bioactive priming polypeptide (SEQ ID NO: 600) was also applied as foliar treatment to R1 stage hybrid soybean (Beck's 297R4) with 0.1% (v/v) non-ionic surfactant ([…] SURFACE) using a spray bottle delivering approximately 1.2 ml/plant. This experiment was performed to look at the effects of RHPP on plant growth and was conducted using a total of 18 plants per treatment group. […] R1 stage soybean plants were treated with nothing (non-treated control), […] SURFACE surfactant applied at a concentration of 0.1% (v/v) or the RHPP polypeptide (300 nM) applied in combination with […] SURFACE surfactant (0.1% v/v). Height for each plant was recorded at the time of spray and again at 16 days post foliar application and average growth parameters were compared between foliar treatments (Table 39).

[5] = tested on: peppers (Capsicum); assay: Foliar treatment of pepper varieties RK and HHW, yield (Examples 13, 26)
Experimental: Foliar treatments of Bt.4Q7 Flg22 and Ec.Flg22 bioactive priming polypeptides were applied using small scale plots designed to simulate commercial growing conditions for peppers (Capsicum). Two varieties of pepper: Red Knight (RK) and Hungarian Hot Wax (HHW) were grown from 6-week old transplants in raised beds covered with black plastic mulch that had good water-holding characteristics and a pH of 5.8-6.6. Plants were grown using drip irrigation and fertilizer applied following grower guidelines throughout the growing season to ensure optimum plant growth and yields. Small raised bed plots were designed to simulate the planting densities used by commercial growers that generally plant approximately 10,000-14,000 plants per acre in double rows 14-18 inches (35.6 to 46 cm) apart on plastic mulched beds with 16-24 inches (40.6 to 61 cm) between plants in the row and with the beds spaced 5.0-6.5 feet ([…]) apart from their centers. A single row of peppers also can be planted on each bed (5,000-6,500 plants per acre or 12,355-16,062 plants per hectare).
Effects of the foliar applications on pepper yield were determined for two separate harvests using a once over harvest approach and normalized to the yield of the control plants. The average percentage change in yield for each treatment over the yield for the control plants is reported as pounds/acre (lbs/Ac) in Table 29.
Foliar treatment of Gm.RHPP (SEQ ID NO: 600) was applied as an exogenous spray at the first-bloom stage to increase yield in two pepper varieties. Foliar treatment of Gm.RHPP was applied using small scale plots designed to simulate commercial growing conditions for peppers (Capsicum) as described in Example 13. Foliar applications with the Gm.RHPP bioactive priming polypeptide were applied at the first flower stage, on two varieties of pepper, Red Knight (RK) and Hungarian Hot Wax (HHW). […] Effects of the foliar applications on pepper yield were determined for two separate harvests using a once over harvest approach and normalized to the yield of the control plants. The average percentage change in yield over the yield for the control plants is reported in Table 42, as the percent change per total weight (lbs/Ac) of peppers harvested. Average percent change in yield is reported for the 2 replicate harvests (trials) for the RK and HHW pepper varieties and then as a combined average for both varieties.

[6] = jalapeno pepper, foliar at early bloom, 3.2 fl oz/Ac
[7] = Bt.4Q7Flg22 2.0 Fl. oz/Ac or Gm.RHPP 3.2 Fl. oz/Ac

RHPP: root hair promoting polypeptide derived from Glycine max (GGIRAAPTGNER; Glycine max)
defoliation ([1]; R7, 150 mL/Ha): 96%
defoliation ([1]; R7, 300 mL/Ha): 70%
increase in weight of peppers per plant vs surfactant only control ([2]; 3.2 Fl. oz/Ac): 27%
Average Fruit Weight (grams) per Plant [2, 6]: 156.6 grams
Percentage Change in Fruit Weight Compared to Surfactant Control [2, 6]: +27%
change in fruit weight vs surfactant only control [3, 7]: 4.4%
increase in weight of harvested squash fruit [3, 7]: 31.7 grams per plant
Average squash fruit weight (grams) per plant ([3]; Crookneck squash, foliar at first bloom, two harvests, Bt.4Q7Flg22 2 fl oz/Ac, Gm.RHPP 3.2 fl oz/Ac): 748.4 grams
plant growth (plant height) vs surfactant alone and non-treated control ([4]; 16 days post application): increased plant growth
Height (cm) ([4]; soybean Beck's 297R4, R1 stage): 19.9 cm
Change in height (cm) ([4]; soybean Beck's 297R4, R1 stage, 16 days post foliar application): 4.6 cm
increase in pepper yield over control ([5]; HHW variety, 1 Fl. oz/Ac): 46%
combined average increase in pepper yield (lbs/Ac) over control ([5]; RK and HHW varieties combined, 1 Fl. oz/Ac): 67%
increase in pepper yield over control ([5]; RK variety, 1 Fl. oz/Ac): 87%
Combined Avg. Percent Change Yield Total Number (lbs/Ac) RK and HHW ([5]; both pepper varieties, foliar 1 Fl. oz/Ac, vs water control): +67%
Avg. Percent Change Yield Total Weight (lbs/Ac) Hungarian Hot Wax ([5]; pepper variety HHW, foliar 1 Fl. oz/Ac at first flower, vs water control, 2 harvests): +46%
Avg. Percent Change Yield Total Weight (lbs/Ac) Red Knight ([5]; pepper variety RK, foliar 1 Fl. oz/Ac at first flower, vs water control, 2 harvests): +87%
